The other results are listed elsewhere or left out. Sequences were assembled here from the parent chain. Values near 0.05 are background.
B1: TEV protease; numbered along this chain (parent)
chain: MGESLFKGPRDYNPISSSICHLTNESDGHTTSLYGIGFGPFIITNKHLFRRNNGTLVVQSLHGVFKVKDTTTLQQHLVDGRDMIIIRMPKDFPPFPQKLKFREPQREERICLVTTNFQTKSMSSMVSDTSCTFPSGDGIFWKHWIQTKDGQCGSPLVSTRDGFIVGIHSASNFTNTNNYFTSVPKNFMELLTNQEAQQWVSGWRLNADSVLWGGHKVFMVKPEEPFQPVKEATQL

Variants of: B1
Test: raw area under fraction-flipped curve 0-4 h after induction (AUC4h, not background-subtracted), DNA-recorder readout of cleavage of the substrate (dimensionless); higher = more cleavage of the substrate by the protease variant
Settings: temperature: 34 °C; time window: 0-4 h after rhamnose induction
Description: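 In vivo DNA recorder in E. coli TOP10(DE3) ΔrhaA at 34 °C. Each TEVp single-site mutant (parent TEVp 0) is paired with a single-site variant of the 7-mer TEVs (canonical ENLYFQ|S). The substrate sits between flexible linkers in a Bxb1-sfGFP-TEVs-SsrA fusion, so cleavage stabilises Bxb1 and speeds flipping of a recombination array, read by NGS. The value is the raw area under the fraction-flipped curve over 0-4 h after rhamnose induction (AUC4h), with ≥20 reads per time point. It is not background-subtracted; inactive controls average about 0.047.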
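Also: Bxb1 expression induced with 0.2% (w/v) L-rhamnose at OD600 near 0.5, cultures sampled hourly, flipped fraction per protease–substrate barcode pair counted by paired-end Illumina sequencing.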

Row | Variant | area with substrate ENAYFQS | area with substrate ENEYFQS | area with substrate ENFYFQS | area with substrate ENGYFQS | area with substrate ENHYFQS | area with substrate ENIYFQS | area with substrate ENKYFQS | area with substrate ENMYFQS | area with substrate ENPYFQS | area with substrate ENQYFQS | area with substrate ENRYFQS | area with substrate ENSYFQS | area with substrate ENTYFQS | area with substrate ENVYFQS | area with substrate ENWYFQS | area with substrate ENYYFQS | area with substrate ENCYFQS | area with substrate ENDYFQS | area with substrate ENNYFQS
1 | Q105Y | 0.0591 | 0.061 | 0.0523 | 0.0603 | 0.0542 | 0.0926 | 0.0727 | 0.0645 | 0.0391 | 0.0511 | 0.0653 | 0.0568 | 0.0765 | 0.0711 | 0.0702 | 0.0624 |  |  | 
2 | R106T | 0.0607 | 0.0417 | 0.0558 | 0.0598 | 0.0663 | 0.12 |  |  | 0.0628 | 0.0646 | 0.0623 | 0.0516 | 0.0656 | 0.0704 |  | 0.062 | 0.0705 | 0.0698 | 
3 | E107G | 0.054 | 0.0554 | 0.0826 |  | 0.0559 | 0.0995 |  | 0.0918 | 0.0515 |  | 0.0271 | 0.0469 | 0.0563 | 0.0682 |  |  |  | 0.0872 | 
4 | E107H | 0.0596 | 0.0603 |  | 0.069 | 0.0564 | 0.136 | 0.0638 | 0.0746 |  | 0.066 | 0.0527 | 0.0546 | 0.0639 |  | 0.0032 | 0.0428 | 0.0544 |  | 0.0825
5 | E108D | 0.0553 | 0.0612 | 0.0688 |  |  |  | 0.0994 | 0.0656 |  | 0.0533 | 0.0519 | 0.0731 |  |  |  |  | 0.0675 | 0.0667 | 
6 | E108M | 0.0471 |  |  | 0.062 |  |  | 0.0466 | 0.0989 |  |  |  | 0.0515 |  | 0.0639 |  | 0.0497 | 0.0685 | 0.0537 | 0.0428
7 | R109E | 0.0633 | 0.0423 | 0.0694 | 0.0571 | 0.0526 | 0.124 | 0.0539 | 0.0932 | 0.0721 | 0.0621 |  |  | 0.0656 |  |  | 0.0633 | 0.0626 | 0.059 | 0.0694
8 | I110S | 0.0556 |  |  | 0.0568 | 0.0676 |  |  | 0.0439 |  | 0.0594 | 0.0376 | 0.0643 | 0.0503 | 0.0551 | 0.0485 | 0.0355 |  | 0.0585 | 0.0661
9 | C111W | 0.0546 | 0.0613 |  | 0.0515 |  | 0.0995 |  | 0.0793 | 0.0787 | 0.0614 |  | 0.0835 | 0.0604 |  | 0.0657 |  | 0.0919 |  | 0.0428
10 | L112E | 0.0331 | 0.0591 | 0.061 |  | 0.061 | 0.0623 | 0.0489 | 0.0634 | 0.0504 | 0.0608 | 0.0679 |  | 0.0649 | 0.0759 |  | 0.0568 | 0.0509 | 0.0632 | 
11 | L112R | 0.0634 | 0.0496 | 0.0751 | 0.0665 | 0.0573 |  | 0.0283 |  | 0.0524 | 0.0568 |  | 0.0559 | 0.0743 | 0.0574 | 0.0563 |  | 0.056 | 0.0574 | 
12 | V113Q | 0.0573 | 0.0594 | 0.0592 | 0.0436 | 0.064 | 0.0699 |  | 0.062 | 0.0495 | 0.0554 | 0.0448 | 0.0521 | 0.0666 |  | 0.0541 |  | 0.0621 | 0.0721 | 0.0562
13 | T114A | 0.0683 | 0.06 | 0.0663 |  | 0.0561 |  |  | 0.0742 | 0.0536 | 0.053 | 0.0588 | 0.0683 |  | 0.0925 | 0.008 |  | 0.0567 | 0.0496 | 0.0788
14 | T114K | 0.0535 |  |  |  | 0.0346 |  |  |  |  | 0.0577 |  | 0.121 |  | 0.0709 |  |  | 0.0733 |  | 
15 | T114W | 0.0698 | 0.0742 | 0.0646 | 0.0678 | 0.076 | 0.0979 | 0.0751 |  |  | 0.0608 | 0.0519 | 0.043 |  | 0.0847 |  |  |  | 0.0533 | 0.0682
16 | T115E | 0.033 | 0.064 | 0.0401 | 0.0763 | 0.0573 |  |  |  | 0.0673 | 0.0478 | 0.0634 | 0.0584 |  |  | 0.0492 |  | 0.0558 | 0.0649 | 
17 | T115F | 0.0634 | 0.068 |  |  | 0.0622 | 0.121 |  |  |  | 0.0598 |  | 0.0591 |  | 0.0852 |  |  | 0.0614 | 0.093 | 
18 | F117R | 0.0649 |  | 0.061 |  | 0.059 |  |  |  | 0.0505 | 0.0587 |  | 0.0643 |  | 0.0743 | 0.0489 |  |  | 0.0837 | 
19 | Q118M | 0.0677 |  |  |  |  | 0.177 | 0.0962 |  |  | 0.0514 |  |  |  |  |  |  | 0.0738 |  | 
20 | Q118V | 0.0653 |  |  |  | 0.105 |  | 0.0755 |  |  |  |  | 0.0386 | 0.0659 |  | 0.0577 |  |  |  | 0.065
21 | S121G | 0.0582 | 0.0679 |  | 0.0608 | 0.0624 | 0.129 |  | 0.0694 |  |  | 0.0799 | 0.0417 | 0.0634 | 0.0754 |  | 0.0585 | 0.049 |  | 0.0542
22 | S121P | 0.0739 | 0.0575 |  | 0.0432 | 0.0439 |  |  | 0.0881 |  | 0.0646 | 0.0702 | 0.0818 | 0.0732 | 0.0789 | 0.0058 |  | 0.0735 |  | 0.0542
23 | M122N | 0.104 | 0.0654 |  | 0.0354 |  | 0.111 |  | 0.0706 | 0.0357 | 0.0546 |  |  |  | 0.09 |  | 0.0554 | 0.0704 | 0.0346 | 0.0617
24 | M122T | 0.0688 | 0.0712 |  |  |  |  |  |  | 0.0559 | 0.0677 | 0.0591 | 0.0538 | 0.0704 |  | 0.0701 |  |  | 0.0602 | 
25 | S123E | 0.0605 | 0.0575 | 0.0714 | 0.054 | 0.0565 | 0.116 |  | 0.056 | 0.0374 | 0.0629 | 0.0654 | 0.0644 | 0.0565 | 0.0644 | 0.0565 | 0.0585 | 0.0563 | 0.0464 | 0.0637
26 | S123G | 0.0616 | 0.0599 | 0.068 | 0.063 | 0.0617 | 0.133 |  |  | 0.0532 | 0.0455 |  | 0.0705 | 0.0422 | 0.07 |  | 0.054 |  | 0.0652 | 0.059
27 | S124A | 0.0723 | 0.0672 |  | 0.0643 |  |  |  | 0.0626 |  | 0.0424 | 0.0594 | 0.0568 | 0.0599 |  | 0.0567 | 0.0534 | 0.0886 | 0.0613 | 
28 | S124F | 0.0913 | 0.0645 |  | 0.0403 |  |  |  | 0.0731 | 0.046 | 0.0514 | 0.0545 | 0.126 |  | 0.0745 |  |  | 0.057 | 0.0587 | 
29 | S124I | 0.0642 | 0.0726 | 0.0618 | 0.0351 | 0.0814 |  |  |  |  | 0.0568 | 0.0342 | 0.054 | 0.0761 |  |  |  | 0.0363 | 0.059 | 0.0523

Source: the supplement of paper PMC12217912
